# The whole screen tested about 330,000 compounds, of which about 560 (0.17%) were called active. The shares of active, inactive and inconclusive entries below differ from those in the screen. The call rests on the fitted dose curve; in most records, active means well fitted inhibition curve with a large enough effect; inconclusive means small, poorly fitted or top-dose-only effect, or effect the other way; inactive means flat fitted curve, though single readings scatter. No potency is given beside an inconclusive call; the fits are too rough.
# Biological target: ATP-dependent 6-phosphofructokinase (Trypanosoma brucei brucei) (UniProt O15648)
# Test: qHTS Assay to Find Inhibitors of T. brucei phosphofructokinase; further: nearly all actives have a fitted effect of over 60% in size;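 on activity, negative = inhibition: 0% = uninhibited 1x PFK enzyme wells and -100% = no-enzyme wells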
# Conditions: T. brucei PFK, ADP-Glo luminescence; activity, negative = inhibition: at 57.5 µM (top of the series)
# Outline: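 Activity is normalized to no-enzyme wells (full inhibition) and 1.25 nM enzyme wells (no inhibition). Reaction: 0.5 mM F6P, 0.1 mM ATP, 45 min RT, ADP-Glo luminescence; concentration-response curves fitted and classed by quality.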
# Potency means the concentration at half of the fitted maximal effect; tags describe the fitted curve by direction and shape.
# Sequence of UniProt O15648 (O15648 whole entry, looked up): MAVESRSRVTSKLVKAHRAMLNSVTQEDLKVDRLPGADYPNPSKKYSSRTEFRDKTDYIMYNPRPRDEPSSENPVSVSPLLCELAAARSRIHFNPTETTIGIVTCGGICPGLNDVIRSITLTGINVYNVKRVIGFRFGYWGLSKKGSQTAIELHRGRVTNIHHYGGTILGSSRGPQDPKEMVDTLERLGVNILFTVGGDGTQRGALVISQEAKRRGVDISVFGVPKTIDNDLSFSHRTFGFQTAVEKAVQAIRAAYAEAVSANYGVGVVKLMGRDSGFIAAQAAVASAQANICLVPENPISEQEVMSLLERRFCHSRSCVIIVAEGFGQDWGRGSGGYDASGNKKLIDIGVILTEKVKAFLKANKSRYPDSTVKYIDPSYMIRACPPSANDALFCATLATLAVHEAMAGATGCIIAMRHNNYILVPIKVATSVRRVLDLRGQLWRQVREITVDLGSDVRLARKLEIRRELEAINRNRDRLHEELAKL
SMILES,Potency,"activity, negative = inhibition"
O=C(Nc1ccc(C2=NCCN2)cc1)c1ccc(C(=O)Nc2ccc(C3=NCCN3)cc2)c(Cl)c1,"inconclusive [activator, single point]",–
O=C(O)C(O)c1ccccc1 (stereo not drawn),inactive,–
O=[N+]([O-])c1ccc(-[n+]2ccc3ccccc3c2)c([N+](=O)[O-])c1,–,inactive: -16%
O=C(/C=C/c1ccco1)NC(=S)Nc1ccc(Cl)cn1,"inconclusive [falling, single point]",–
COc1ccc(-c2csc3nc(-c4ccc(C)cc4)oc(=O)c23)cc1OC,"inconclusive [falling, single point]",–
C/C(=N\NC(=O)Cc1ccc(Cl)cc1)c1cccnc1,"inconclusive [falling, single point]",–
O=[N+]([O-])c1ccccc1C1Nc2cccc3cccc(c23)N1,"inconclusive [falling, full curve, poor fit]",–
Cn1c(=O)c(Nc2ccc(O)cc2)c2c3c(cccc31)C(=O)c1ccccc1-2,"inconclusive [falling, full curve]",–
O=C(O)CN1C(=O)/C(=C/c2ccsc2)SC1=S,"inconclusive [activator, single point]",–
O=C(CSCCO)Nc1cccc(C(F)(F)F)c1,"inconclusive [falling, partial curve, poor fit]",–
CC(=O)c1ccc(NC(=S)Nc2cccc3ccccc23)cc1,"inconclusive [falling, single point]",–
O=C(NCc1ccco1)C1c2ccccc2Oc2ccccc21,"inconclusive [falling, single point]",–
Oc1ccc(-c2cn3c(n2)SCC3)cc1O,"inconclusive [falling, full curve]",–
Nc1nonc1C(=O)N/N=C/c1ccc(-c2ccc(Cl)c(C(=O)O)c2)o1,"inconclusive [activator, full curve]",–
C[C@H](NC(N)=O)C(=O)Nc1ccc(N2CCOCC2)c(S(=O)(=O)Nc2ccc(Cl)cc2)c1,"inconclusive [falling, partial curve]",–
CCN(CC)CCOC(=O)c1ccc(N/C=C(/C#N)c2nc(-c3ccc(OC)c(OC)c3)cs2)cc1,"inconclusive [activator, single point]",–
c1ccc(-c2ccccc2OCCOCCN2CCOCC2)cc1,"inconclusive [falling, single point]",–
Cc1ccc(Cl)cc1NC(=O)COC(=O)c1ccc(N2CCCC2)c([N+](=O)[O-])c1,"inconclusive [falling, single point]",–
CCOC(=O)C1=C(c2ccccc2)NC(=O)NC1c1cc(Br)c(O)c(OC)c1 (stereo not drawn),"inconclusive [falling, single point]",–
COc1ccc(-c2cc(-c3n[nH]c(=S)n3-c3cc(OC)ccc3OC)[nH]n2)cc1,"inconclusive [falling, partial curve]",–
Clc1ccc(CN2C3=NCCCN3c3ccccc32)cc1,active: 15.1 µM,–
Cc1ccc(C)c(-n2c3nc(=O)[nH]c(=O)c-3cc3cc([N+](=O)[O-])ccc32)c1,"inconclusive [activator, partial curve]",–
COc1cc(/C=C/[N+](=O)[O-])ccc1OCc1cccc(C(=O)O)c1,"inconclusive [falling, single point]",–

SMILES,Potency,"activity, negative = inhibition"
CCOC(=O)CS(=O)(=O)c1nc(-c2ccc(F)cc2)cc(C(F)(F)F)n1,"inconclusive [falling, single point]",–
Cc1cnc(NS(=O)(=O)c2ccc(Cl)cc2)c(Br)c1,"inconclusive [falling, full curve, poor fit]",–
COc1ccc(CCNC(=O)c2ccc3nc(-c4ccco4)c(-c4ccco4)nc3c2)cc1OC,"inconclusive [falling, partial curve]",–
c1cncc(-c2nn3c(Cn4cnc5ccccc54)nnc3s2)c1,"inconclusive [falling, single point]",–
O=C(CCN1C(=O)/C(=C/c2cccs2)SC1=S)Nc1ccc(C(=O)O)c(O)c1,–,inactive: 0.169%
CC(=O)c1ccc(OCCCC(=O)Nc2cccc(S(=O)(=O)N3CCCCC3)c2)cc1,"inconclusive [falling, single point]",–
COc1ccccc1/C=C/C(=O)NNC(=O)c1cc(C)oc1C,–,inactive: -1.17%
CC(C)[C@H](NC(=O)Cc1ccccc1)C(=O)OCc1cc(=O)n2c(n1)sc1ccccc12,–,inactive: -14%
CN1CCN(C(=O)c2cc3cc(F)ccc3[nH]2)CC1,–,inactive: 1.05%
COc1cc(N=c2ssnc2Cl)c(OC)cc1Cl,"inconclusive [falling, single point]",–
O=C(O)c1cc(NS(=O)(=O)c2cccs2)cc(NS(=O)(=O)c2cccs2)c1,"inconclusive [activator, single point]",–
COc1ccccc1CCNC(=O)c1csc2c1CCCC2,–,inactive: 2.69%
CCOCC(=O)Nc1nc2ccccc2s1,"inconclusive [falling, single point]",–
COCCN(CCOC)Cc1c(O)ccc2c1O/C(=C\c1ccc(C)o1)C2=O,"inconclusive [falling, full curve, poor fit]",–
COc1ccc2c(c1)c(C(=O)N/N=C/c1ccc(O)c(O)c1)c(C)n2C,"inconclusive [activator, single point]",–
O=c1c2ccccc2sn1-c1ccc(S(=O)(=O)N2CCCC2)cc1,"inconclusive [falling, partial curve]",–
O=[N+]([O-])c1ccc(Cc2cncc(O)c2)cc1,"inconclusive [falling, partial curve, poor fit]",–
O=C1C2CC=C(Cl)CC2C(=O)N1CN(Cc1ccco1)CN1C(=O)C2CC=C(Cl)CC2C1=O (stereo not drawn),"inconclusive [falling, single point]",–
O=C(NCCC1CCCCN1S(=O)(=O)c1cccs1)C(=O)Nc1ccc(F)cc1F (stereo not drawn),"inconclusive [activator, single point]",–
O=C(COC(=O)c1c(F)cccc1F)Nc1ccc2[nH]c(=O)[nH]c2c1,"inconclusive [falling, single point]",–
O=C1NC(=S)N/C1=C/c1cccn1-c1ccc([N+](=O)[O-])cc1,–,inactive: 17%
COCC(=O)Nc1ccc2c(c1)OCC(=O)N2Cc1ccc(C)cc1,"inconclusive [falling, single point]",–
COc1cccc(N=Nc2c(=O)[nH]n3c(=O)cc(C)[nH]c23)c1,"inconclusive [activator, single point]",–

SMILES,Potency,"activity, negative = inhibition"
Cc1ccc(N(CCC#N)C(=O)CSc2ccc3c(c2)OCCO3)cc1,–,inactive: 0.0923%
N#Cc1c(N)nc2c(c1N)CC(CCl)O2 (stereo not drawn),"inconclusive [activator, partial curve]",–
COc1cc(C2/C(=C(/O)c3ccc(F)cc3)C(=O)C(=O)N2CCCC(=O)O)ccc1O (stereo not drawn),"inconclusive [falling, partial curve]",–
Cc1ccc(-n2sc3ccccc3c2=O)cc1S(=O)(=O)N1CCCCC1,active: 13.5 µM,–
COc1cccc(-n2c(C)nc3c(cnn3-c3ccc(Cl)cc3)c2=O)c1,–,inactive: -0.778%
COCCOC(=O)C(C#N)c1nc2ccccc2nc1N1CCN(Cc2ccccc2)CC1 (stereo not drawn),–,inactive: 2.68%
CCc1nnc(NS(=O)(=O)c2ccc(NC(=S)NC(=O)c3ccc(Br)cc3)cc2)s1,"inconclusive [activator, single point]",–
CC1(C)OC(=O)C(=Cc2ccc(-c3ccc(S(N)(=O)=O)cc3)o2)C(=O)O1,"inconclusive [activator, partial curve]",–
O=C(O)c1nn(-c2ccccc2)nc1-c1nn(-c2ccccc2)nc1C(=O)O,"inconclusive [activator, single point]",–
COc1cc(C(=O)OCC(=O)N(C)C)cc(NC(=O)c2ccco2)c1OC,"inconclusive [falling, single point]",–
CC(N)=Nc1ccc([N+](=O)[O-])cc1,–,inactive: -2.35%
Cc1nc2ccc3nc(NC(=O)c4ccc5c(c4)OCCO5)sc3c2s1,–,inactive: 4.76%
COc1ccc(C2NC(=O)C(C#N)=C(S)N2c2ccc(C)cc2)cc1OC (stereo not drawn),"inconclusive [activator, single point]",–
Cc1sc(NC(=O)c2ccco2)c(C(c2ccc(F)cc2)N2CCN(C)CC2)c1C (stereo not drawn),–,inactive: -3.81%
O=C(CCNc1ccc(Cl)c(C(F)(F)F)c1)c1ccco1,"inconclusive [falling, partial curve]",–
O=C(N/N=C/c1sc(=O)[nH]c1-[n+]1ccc2ccccc2c1)c1ccccc1[O-],"inconclusive [falling, single point]",–
CCn1c(N)c(C(=O)NCCCOC)sc1=S,"inconclusive [falling, single point]",–
O=C(COC(=O)C1CCN(c2ccc(C(F)(F)F)cn2)CC1)NCCc1ccccc1,"inconclusive [activator, full curve, poor fit]",–
N#CC(C#N)=c1ccc2c(c1)NC1(CCCCC1)N=2,"inconclusive [falling, partial curve]",–
O=Cc1c(Sc2ccccn2)nc2ccccn2c1=O,–,inactive: -2.23%
O=c1c2cnn(-c3ccccc3)c2nc(-c2ccco2)n1-c1ccccc1,–,inactive: -30%
COc1ccc(NCc2ccc([N+](=O)[O-])s2)cc1,"inconclusive [falling, partial curve]",–
